No constants are given. Whether binding was seen depends on the method and setting. In cells and extracts the contact can be indirect. Where a sequence is shown, tags or fusion partners need not be part of it.
What was measured:
hYAP-myc (human), P46937 = test: co-IP; HEK293 cells co-transfected with YAP and V5-tagged ASPP constructs; exogenous YAP immunoprecipitated with anti-myc 9E10; immunoblot; settings: remark: other sources report otherwise
hYAP-myc (human) = hYAP-myc (human) (UniProt P46937); test: as above

The chains behind the UniProt entries cited, without tags or fusion partners.
UniProt P46937: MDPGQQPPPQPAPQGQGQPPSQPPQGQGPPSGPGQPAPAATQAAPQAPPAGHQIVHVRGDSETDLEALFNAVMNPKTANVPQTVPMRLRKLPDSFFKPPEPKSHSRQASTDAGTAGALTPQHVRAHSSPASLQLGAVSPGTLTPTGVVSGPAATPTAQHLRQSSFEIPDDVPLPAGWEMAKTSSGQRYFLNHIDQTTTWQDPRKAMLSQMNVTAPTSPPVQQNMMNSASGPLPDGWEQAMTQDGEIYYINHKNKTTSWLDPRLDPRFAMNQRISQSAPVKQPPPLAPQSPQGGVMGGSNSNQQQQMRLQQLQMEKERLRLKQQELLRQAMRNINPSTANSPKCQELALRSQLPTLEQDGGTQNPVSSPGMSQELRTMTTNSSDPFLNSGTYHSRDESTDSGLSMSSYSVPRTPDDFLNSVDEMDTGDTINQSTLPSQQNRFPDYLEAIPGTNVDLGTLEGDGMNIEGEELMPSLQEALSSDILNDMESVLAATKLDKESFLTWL

| binding (hYAP-myc (human), P46937) | binding (hYAP-myc (human)) | Binder |
| --- | --- | --- |
| no binding | – | ASPP1-V5, Q96KQ4 1-1090 (protein) MMPMILTVFLSNNEQILTEVPITPETTCRDVVEFCKEPGEGSCHLAEVWRGNERPIPFDHMMYEHLQKWGPRREEVKFFLRHEDSPTENSEQGGRQTQEQRTQRNVINVPGEKRTENGVGNPRVELTLSELQDMAARQQQQIENQQQMLVAKEQRLHFLKQQERRQQQSISENEKLQKLKERVEAQENKLKKIRAMRGQVDYSKIMNGNLSAEIERFSAMFQEKKQEVQTAILRVDQLSQQLEDLKKGKLNGFQSYNGKLTGPAAVELKRLYQELQIRNQLNQEQNSKLQQQKELLNKRNMEVAMMDKRISELRERLYGKKIQLNRVNGTSSPQSPLSTSGRVAAVGPYIQVPSAGSFPVLGDPIKPQSLSIASNAAHGRSKSANDGNWPTLKQNSSSSVKPVQVAGADWKDPSVEGSVKQGTVSSQPVPFSALGPTEKPGIEIGKVPPPIPGVGKQLPPSYGTYPSPTPLGPGSTSSLERRKEGSLPRPSAGLPSRQRPTLLPATGSTPQPGSSQQIQQRISVPPSPTYPPAGPPAFPAGDSKPELPLTVAIRPFLADKGSRPQSPRKGPQTVNSSSIYSMYLQQATPPKNYQPAAHSALNKSVKAVYGKPVLPSGSTSPSPLPFLHGSLSTGTPQPQPPSESTEKEPEQDGPAAPADGSTVESLPRPLSPTKLTPIVHSPLRYQSDADLEALRRKLANAPRPLKKRSSITEPEGPGGPNIQKLLYQRFNTLAGGMEGTPFYQPSPSQDFMGTLADVDNGNTNANGNLEELPPAQPTAPLPAEPAPSSDANDNELPSPEPEELICPQTTHQTAEPAEDNNNNVATVPTTEQIPSPVAEAPSPGEEQVPPAPLPPASHPPATSTNKRTNLKKPNSERTGHGLRVRFNPLALLLDASLEGEFDLVQRIIYEVEDPSKPNDEGITPLHNAVCAGHHHIVKFLLDFGVNVNAADSDGWTPLHCAASCNSVHLCKQLVESGAAIFASTISDIETAADKCEEMEEGYIQCSQFLYGVQEKLGVMNKGVAYALWDYEAQNSDELSFHEGDALTILRRKDESETEWWWARLGDREGYVPKNLLGLYPRIKPRQRTLA |
| – | no binding | iASPP-V5 (protein, UniProt Q8WUF5 1-828) MDSEAFQSARDFLDMNFQSLAMKHMDLKQMELDTAAAKVDELTKQLESLWSDSPAPPGPQAGPPSRPPRYSSSSIPEPFGSRGSPRKAATDGADTPFGRSESAPTLHPYSPLSPKGRPSSPRTPLYLQPDAYGSLDRATSPRPRAFDGAGSSLGRAPSPRPGPGPLRQQGPPTPFDFLGRAGSPRGSPLAEGPQAFFPERGPSPRPPATAYDAPASAFGSSLLGSGGSAFAPPLRAQDDLTLRRRPPKAWNESDLDVAYEKKPSQTASYERLDVFARPASPSLQLLPWRESSLDGLGGTGKDNLTSATLPRNYKVSPLASDRRSDAGSYRRSLGSAGPSGTLPRSWQPVSRIPMPPSSPQPRGAPRQRPIPLSMIFKLQNAFWEHGASRAMLPGSPLFTRAPPPKLQPQPQPQPQPQSQPQPQLPPQPQTQPQTPTPAPQHPQQTWPPVNEGPPKPPTELEPEPEIEGLLTPVLEAGDVDEGPVARPLSPTRLQPALPPEAQSVPELEEVARVLAEIPRPLKRRGSMEQAPAVALPPTHKKQYQQIISRLFHRHGGPGPGGPEPELSPITEGSEARAGPPAPAPPAPIPPPAPSQSSPPEQPQSMEMRSVLRKAGSPRKARRARLNPLVLLLDAALTGELEVVQQAVKEMNDPSQPNEEGITALHNAICGANYSIVDFLITAGANVNSPDSHGWTPLHCAASCNDTVICMALVQHGAAIFATTLSDGATAFEKCDPYREGYADCATYLADVEQSMGLMNSGAVYALWDYSAEFGDELSFREGESVTVLRRDGPEETDWWWAALHGQEGYVPRNYFGLFPRVKPQRSKV |
